Assay results from PubChem BioAssay AID1347120 (National Center for Advancing Translational Sciences (NCATS), 2019).
The whole screen tested about 390,000 compounds, of which about 930 (0.24%) were called active. Inconclusive results, whose numbers are uncertain, are shown with a selection of clear calls. Calls follow the shape of the dose curve; as a rule, active = well fitted activation curve with a large enough effect; inconclusive = small, poorly fitted or top-dose-only effect; inactive = no such curve, though single readings can be large or run the other way. Potencies of inconclusive entries are doubtful fits and often do not repeat.

Experiment: qHTS for Suppressors of FUS Proteinopathy: Primary screen using FUS-linked yeast assay; also: nearly all actives have a fitted effect of over 55% in size
Settings: S. cerevisiae FUS-expressing, OD600, 24 h; Potency: growth rescue; series mostly up to 76.6 µM
Method in brief: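 Yeast expressing FUS under galactose induction, OD 0.005 in 2% galactose medium; compounds in a dilution series, 24 h at 30C. Growth rescue by absorbance at 600 nm; CP55940 positive control, DMSO negative.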
Potency is read from the fitted curve at half-maximal effect; tags tell the direction and shape of the fitted curve.

SMILES | Potency
COc1ccc(C(=O)Nc2nc3n(n2)C(c2ccccc2)C=C(c2ccccc2)N3)cc1 (configuration not stated) | inconclusive: 39.8 µM [activator, single point]
CCCCCCCCN1C(=O)[C@H](CC(=O)NCc2ccccc2)C[C@@]2(C(=O)OC)CC(C)(C)CC=C12 | inconclusive: 5.62 µM [activator, full curve, poor fit]
COC(=O)[C@]12C[C@H](CC(=O)NCC34CC5CC(CC(C5)C3)C4)C(=O)N(CCc3ccc(OC)c(OC)c3)C1=C[C@H](C(C)(C)C)O[C@@H]2C | inconclusive: 17.8 µM [activator, partial curve, poor fit]
COc1ccc(NC(=O)COc2ccc(C(=O)c3ccc(F)cc3)cc2)cc1S(N)(=O)=O | inconclusive: 31.6 µM [activator, single point]
C=CCn1cccc(C(=O)Nc2ccc(SC)cc2)c1=O | inactive
Cn1cnc(C(=O)NCc2ccc(CNC(=O)OC(C)(C)C)cc2)c1C(=O)NCc1ccc(CNC(=O)OC(C)(C)C)cc1 | inconclusive: 20 µM [activator, single point]
COc1cc(C)ccc1OCc1cc(C(=O)NC(c2ccccn2)C(F)(F)F)no1 (configuration not stated) | inactive
CCc1cc(C(=O)c2ccc(OC)cc2)c(NC(=O)CC(C)(C)CC(=O)O)s1 | inconclusive: 12.6 µM [activator, partial curve, poor fit]
CCc1ccccc1OCC(=O)Nc1ccc(F)c(S(=O)(=O)N2CCOCC2)c1 | inactive
COc1ccc(-c2cn3nc(N4CCCC(C(=O)Nc5cccc(OC)c5)C4)sc3n2)cc1 (configuration not stated) | inconclusive: 35.5 µM [activator, partial curve, poor fit]
CCCCOCCCNC(=O)C[C@@H]1C[C@@]2(C(=O)OC)CC(C)(C)CC=C2N(Cc2ccc3c(c2)OCO3)C1=O | inconclusive: 10 µM [activator, partial curve]
NC(=O)C1CCN(c2oc(/C=C/c3ccc(F)cc3)nc2S(=O)(=O)c2ccccc2)CC1 | inactive
COc1cccc(C(=O)NC(=NCCc2c[nH]c3ccc(OC)cc23)Nc2nc(C)cc(C)n2)c1 | inconclusive: 15.8 µM [activator, partial curve]
S=C(NCC1CCCO1)N1CCN(c2nc(-c3ccc(Cl)cc3)cs2)CC1 (configuration not stated) | inconclusive: 15.8 µM [activator, partial curve, poor fit]
COc1ccc(N2CCN(CCCNC(=O)CCc3cccc(Cl)c3)CC2)cc1 | inactive
Cc1ccc(NC(=O)c2oc3ccccc3c2NC(=O)c2ccc(F)c(F)c2)cc1 | inactive
CCOCCCNC(=O)CN1C(=O)c2cccc3cccc1c23 | inconclusive: 0.891 µM [activator, full curve, poor fit]
COc1ccc(-n2nc(C(=O)NCC(=O)N3CCN(c4ccccc4OC)CC3)c3ccccc3c2=O)c(OC)c1 | inconclusive: 31.6 µM [activator, partial curve, poor fit]
COc1ccc(S(=O)(=O)N2CCN(Cc3cccc(OC)c3)CC2)cc1 | inconclusive: 4.47 µM [activator, single point]
CCOC(=O)c1cnn(-c2ccc(Cl)cc2)c1C1CCN(C(=O)OC(C)(C)C)CC1 | inconclusive: 25.1 µM [activator, partial curve]
c1ccc(-c2nnc(CN3CCCCC3)o2)cc1 | inactive

SMILES | Potency
COC(=O)C1(C)CCc2cc(OC)ccc2C1=O (configuration not stated) | inactive
CCN(C(=O)COC(=O)c1ccc(O)cc1)c1cccc2ccccc12 | inactive
COc1ccc(S(=O)(=O)N2CN(Cc3ccco3)c3nc4ccccc4nc32)cc1 | active: 5.62 µM
O=C1NC2(CCc3ccccc3C2)C(=O)N1CCOc1cccc(Cl)c1 (configuration not stated) | inactive
O=C1N[C@@H](Cc2c[nH]c3ccccc23)COC(=O)[C@H](Cc2ccc(F)cc2)C/C=C\C[C@@H]1CC(=O)N(CCO)Cc1ccccc1 | active: 28.2 µM
COc1cccc(CNC(=O)[C@@H]2CCCN2C(=O)[C@H]2CCCCN2C(=O)c2cccc3ccccc23)c1 | inconclusive: 35.5 µM [activator, single point]
Cc1ccc(C)c(N2CCN(C(=O)CCNS(=O)(=O)c3ccc4c(c3)CCN4C(=O)C3CC3)CC2)c1 | inconclusive: 39.8 µM [activator, single point]
CCOC(=O)[C@@H]1[C@H]2COc3ccccc3[C@H]2N2C(=O)N(c3ccc(Br)cc3)C(=O)[C@]12C | inconclusive: 31.6 µM [activator, single point]
Cc1ccc2cccc(NC(=O)c3cccc4c(Cl)cccc34)c2n1 | inactive
CCCSc1nc(NCc2ccco2)c2c3c(sc2n1)COC(C)(C)C3 | inconclusive: 17.8 µM [activator, single point]
CC(=O)Nc1ccc(C2C(=O)c3ccccc3C2=O)cc1 | inconclusive: 25.1 µM [activator, partial curve]
COc1ccccc1-c1noc(-c2ccc(NCc3ccco3)c([N+](=O)[O-])c2)n1 | inactive
COc1cc(NC(=S)Nc2ccc(OC(F)F)cc2)cc(OC)c1 | inconclusive: 15.8 µM [activator, partial curve]
N#CC1=C(N)SC(N)=C(C#N)C1c1cccc(O)c1 | inconclusive: 31.6 µM [activator, single point]
O=C(CN1CCCN(S(=O)(=O)c2ccc(Br)cc2)CC1)Nc1cccc(C(F)(F)F)c1 | inconclusive: 35.5 µM [activator, single point]
CC1CCN(C(=O)c2ccc3c(c2)N(Cc2ccccc2)C(=O)c2ccccc2S3(=O)=O)CC1 | inconclusive: 25.1 µM [activator, single point]
COc1ccccc1N(CC(=O)Nc1ccc(S(=O)(=O)N2CCCCC2)cc1)S(C)(=O)=O | inconclusive: 39.8 µM [activator, single point]
Cc1[nH]c2ccccc2c1/C=N/NC(=O)c1cc(-c2ccncc2)nc2ccccc12 | inconclusive: 20 µM [activator, partial curve]
CC(=O)Nc1ccc(N2C(C(C)=O)=NN(c3ccc(Cl)cc3)C2c2sccc2C)cc1 (configuration not stated) | inconclusive: 50.1 µM [activator, single point]
Cc1ccc(COCC(CC(C)C)N2CCN(C(=O)c3cccc(C(F)(F)F)c3)CCC2=O)cc1 (configuration not stated) | inconclusive: 22.4 µM [activator, partial curve]
O=C(NCc1ccc(C(F)(F)F)cc1)c1ccc(-c2cccnc2)c2ccoc12 | inconclusive: 35.5 µM [activator, single point]

SMILES | Potency
CN(C(=O)CSc1nnc(-c2ccc(F)cc2)c2ccccc12)C1CCS(=O)(=O)C1 (configuration not stated) | inconclusive: 5.62 µM [activator, full curve]
CCOC(=O)c1ccc(NC(=O)CSc2nc(C)cc(=O)[nH]2)cc1 | inconclusive: 12.6 µM [activator, partial curve, poor fit]
CCc1cc2c(NCc3ccccc3)nc(C)nc2s1 | inactive
O=C(CNS(=O)(=O)c1ccccc1)N/N=C/c1ccncc1 | inactive
Cc1cccc(-n2ncc(C(=O)N3CCN(Cc4ccccc4)CC3)c2C2CCN(C(=O)OC(C)(C)C)CC2)c1 | inactive
O=C(O)CCCCCN1C(=O)C(O)=C(C(=O)/C=C/c2ccccc2)C1c1ccc2c(c1)OCO2 (configuration not stated) | active: 35.5 µM
COc1ccc(Cn2c(CCC(=O)Nc3ccc(C)cc3)nc3cccnc32)cc1 | inconclusive: 25.1 µM [activator, partial curve]
CCn1c(CNC(C)=O)nnc1SCC(=O)c1ccc(Br)cc1 | inactive
COc1ccc(NC(=O)O/N=C/c2c(C)nn(C(C)(C)C)c2C)cc1 | inconclusive: 50.1 µM [activator, single point]
CC1(OC(=O)CCc2ccccc2)C(=O)C=C2C=C(c3ccc(C#N)cc3)N(Cc3ccco3)C=C2C1=O (configuration not stated) | inconclusive: 35.5 µM [activator, single point]
NS(=O)(=O)c1ccc(NC(=O)CSc2nc3ccccc3c(=O)n2-c2ccc(Br)cc2)cc1 | inactive
O=C(c1cnc(Cl)c(Cl)c1)N1CCN(S(=O)(=O)c2ccc3ccccc3c2)CC1 | inconclusive: 31.6 µM [activator, partial curve, poor fit]
CC(C)C[C@@H](COCc1cccc(C(F)(F)F)c1)N1CCN(C(=O)c2ccc(C(F)(F)F)cc2)CCC1=O | inconclusive: 31.6 µM [activator, single point]
CC1CCN(S(=O)(=O)c2ccc3c(c2)CC(C)N3C(=O)C2CCC2)CC1 (configuration not stated) | inconclusive: 25.1 µM [activator, single point]
Cc1ccc(-n2ncc(C(=O)NCCN3CCCC3)c2C2CCN(C(=O)OC(C)(C)C)CC2)cc1 | inconclusive: 31.6 µM [activator, single point]
CCn1ccc2cc(S(=O)(=O)N3CCC(C(=O)NCc4cccc(Cl)c4)CC3)ccc21 | inconclusive: 31.6 µM [activator, single point]
CN(CC(CC(=O)Nc1nncs1)c1ccccc1)S(=O)(=O)c1ccc(Br)cc1 (configuration not stated) | inconclusive: 17.8 µM [activator, single point]
COc1ccc(/C=N/NC(=O)c2ccc(COc3cccc4cccnc34)cc2)cc1O | inconclusive: 28.2 µM [activator, partial curve, poor fit]
Cc1ccccc1NS(=O)(=O)c1cc(C(=O)NCCSC2CCCCC2)ccc1C | inactive
COC(=O)c1c(-c2ccc(OC)cc2)sc2cc(OC)c(OC)cc12 | inconclusive: 31.6 µM [activator, single point]
